Publication PMC11995724, “Antibiotic target discovery by integrated phenotypic and activity-based profiling of electrophilic fragments” (Cell chemical biology, 2025)
Hit rate of the full screen: of about 3,200 compounds, about 75 (2%) showed an effect of 50% or more. The list shows a part of the results.

test system: T1, S. aureus MSSA476; set-up: species or system S. aureus MSSA476 (TSB) or V. cholerae SAD30 (LB); 384-well bacterial growth screen at 25 uM, OD600 relative to DMSO control; conditions: relative growth, OD600, TSB; 25 µM; inhibitor
T1 construct: MSSA476

Structure (SMILES)	% of control remaining [%]
C=CC(=O)N1CCC(C(=O)NC2CCCc3cc(F)ccc32)CC1 (stereo not shown) [2-K18, N-(6-fluoro-1,2,3,4-tetrahydronaphthalen-1-yl)-1-(prop-2-enoyl)piperidine-4-carboxamide]	104.787
CC(Cl)C(=O)N1CCCN(C(=O)c2cc(Cl)cn2C)CC1 (stereo not shown) [7-N07, 2-chloro-1-[4-(4-chloro-1-methyl-1H-pyrrole-2-carbonyl)-1,4-diazepan-1-yl]propan-1-one]	91.6797
CC(Cl)C(=O)NC(C)c1ccc(Cl)cc1Cl (stereo not shown) [5-M15, 2-chloro-N-[1-(2,4-dichlorophenyl)ethyl]propanamide]	98.3607
C=CC(=O)N1CCC(c2nc(C)no2)CC1 [3-E05, 1-[4-(3-methyl-1,2,4-oxadiazol-5-yl)piperidin-1-yl]prop-2-en-1-one]	88.1149
COc1ccc(CCN2C(=O)C=CC2=O)cc1OC [10-H07, 1-[2-(3,4-dimethoxyphenyl)ethyl]-2,5-dihydro-1H-pyrrole-2,5-dione]	119.687
C=CC(=O)NCC1OCCc2sc(F)cc21 (stereo not shown) [2-P09, N-({2-fluoro-4H,6H,7H-thieno[3,2-c]pyran-4-yl}methyl)prop-2-enamide]	92.2541
N#CC(=Cc1ccco1)C(=O)Nc1ccc2nc(S)oc2c1 [9-E16, 2-cyano-3-(furan-2-yl)-N-(2-sulfanyl-1,3-benzoxazol-6-yl)prop-2-enamide]	94.9813
CC(Cl)C(=O)N(C)Cc1nccn1Cc1ccccc1 (stereo not shown) [6-J09, N-[(1-benzyl-1H-imidazol-2-yl)methyl]-2-chloro-N-methylpropanamide]	89.4634
C=CC(=O)NC[C@@H]1C=C[C@H]2C[C@@H]1CO2 (racemic) [1-I03, rac-N-{[(1R,2S,5S)-6-oxabicyclo[3.2.1]oct-3-en-2-yl]methyl}prop-2-enamide]	103.385
C=CC(=O)N(CC)CC(=O)N1CCCC(N2CCCS2(=O)=O)C1 (stereo not shown) [3-I08, N-{2-[3-(1,1-dioxo-1lambda6,2-thiazolidin-2-yl)piperidin-1-yl]-2-oxoethyl}-N-ethylprop-2-enamide]	102.046
Cc1cc(C=C2CCN(C(=O)C(C)Cl)CC2)no1 (stereo not shown) [6-N03, 2-chloro-1-{4-[(5-methyl-1,2-oxazol-3-yl)methylidene]piperidin-1-yl}propan-1-one]	96.2927
CS(=O)(=O)c1ccc(C(=O)CCl)cc1 [10-I13, 2-chloro-1-(4-methanesulfonylphenyl)ethan-1-one]	83.125
C=CC(=O)N1CCC(C(=O)N2CCCC(O)C2)(c2ccccc2)CC1 (stereo not shown) [2-P06, 1-[4-(3-hydroxypiperidine-1-carbonyl)-4-phenylpiperidin-1-yl]prop-2-en-1-one]	83.2028
CC(Cl)C(=O)NCc1nc(C2CC2)n[nH]1 (stereo not shown) [7-L19, 2-chloro-N-[(3-cyclopropyl-1H-1,2,4-triazol-5-yl)methyl]propanamide]	97.9592
O=C(CCl)NCCOc1ccc2ccccc2c1 [6-A14, 2-chloro-N-[2-(naphthalen-2-yloxy)ethyl]acetamide]	84.6829
Cc1cc(=O)[nH]c(-c2cccc(NC(=O)C(C#N)=Cc3ccco3)c2)n1 [8-B10, 2-cyano-3-(furan-2-yl)-N-[3-(4-methyl-6-oxo-1,6-dihydropyrimidin-2-yl)phenyl]prop-2-enamide]	105.892
C=CC(=O)N1CCOCC1c1ccnn1C (stereo not shown) [3-I19, 1-[3-(1-methyl-1H-pyrazol-5-yl)morpholin-4-yl]prop-2-en-1-one]	109.36
CC(C)NC(=O)C(C#N)=Cc1ccc(C(F)(F)F)cc1 [8-L13, 2-cyano-N-(propan-2-yl)-3-[4-(trifluoromethyl)phenyl]prop-2-enamide]	90.6224
COC(=O)c1ccc2[nH]cc(C(=O)CCl)c2c1 [10-D05, methyl 3-(2-chloroacetyl)-1H-indole-5-carboxylate]	113.75
CC(C)NC(=O)C(C#N)=Cc1cccc(C(F)(F)F)c1 [9-J13, 2-cyano-N-(propan-2-yl)-3-[3-(trifluoromethyl)phenyl]prop-2-enamide]	99.176
C=CC(=O)N1CCC(C(=O)N2CCC[C@H]2c2ncn[nH]2)CC1 [2-D12, 1-{4-[(2S)-2-(1H-1,2,4-triazol-5-yl)pyrrolidine-1-carbonyl]piperidin-1-yl}prop-2-en-1-one]	119.06
Cc1cc(C=C(C#N)C(=O)NCc2ccccc2)c(C)n1C1CC1 [8-G14, N-benzyl-2-cyano-3-(1-cyclopropyl-2,5-dimethyl-1H-pyrrol-3-yl)prop-2-enamide]	99.5851

Structure (SMILES)	% of control remaining [%]
N#CC(=Cc1cccc2c1OCCCO2)C(=O)NCc1ccccc1 [9-G05, N-benzyl-2-cyano-3-(3,4-dihydro-2H-1,5-benzodioxepin-6-yl)prop-2-enamide]	76.7041
C=CC(=O)Nc1ccc(C(=O)Nc2ccc(N3CCOCC3)nc2)cc1 [1-K15, N-[6-(morpholin-4-yl)pyridin-3-yl]-4-(prop-2-enamido)benzamide]	124.132
CC(Cl)C(=O)N1Cc2ccccc2C(n2cccn2)C1 (stereo not shown) [6-F20, 2-chloro-1-[4-(1H-pyrazol-1-yl)-1,2,3,4-tetrahydroisoquinolin-2-yl]propan-1-one]	95.9512
CC(Cl)C(=O)Nc1cccc2ncccc12 (stereo not shown) [4-M10, 2-chloro-N-(quinolin-5-yl)propanamide]	120.438
C=CC(=O)N(C)CC(=O)NC(C)c1ncc(C)s1 (stereo not shown) [3-I14, N-methyl-N-({[1-(5-methyl-1,3-thiazol-2-yl)ethyl]carbamoyl}methyl)prop-2-enamide]	86.3735
O=C(CCl)N(Cc1cccs1)C1CCS(=O)(=O)C1 (stereo not shown) [4-L12, 2-chloro-N-(1,1-dioxo-1lambda6-thiolan-3-yl)-N-[(thiophen-2-yl)methyl]acetamide]	106.717
Cc1n[nH]c(C)c1C=C(C#N)C(=O)Nc1cc(Cl)cc(Cl)c1 [8-M08, 2-cyano-N-(3,5-dichlorophenyl)-3-(3,5-dimethyl-1H-pyrazol-4-yl)prop-2-enamide]	72.3651
Cc1cccc(Cc2cnc(NC(=O)C(C)Cl)s2)c1 (stereo not shown) [4-D19, 2-chloro-N-{5-[(3-methylphenyl)methyl]-1,3-thiazol-2-yl}propanamide]	94.5212
N#CC(=Cc1ccc(OC(F)F)cc1)C(=O)NC1CCCCC1 [9-A04, 2-cyano-N-cyclohexyl-3-[4-(difluoromethoxy)phenyl]prop-2-enamide]	56.3296
C=CC(=O)NCc1nnnn1-c1ccc(F)cc1 [1-M22, N-{[1-(4-fluorophenyl)-1H-1,2,3,4-tetrazol-5-yl]methyl}prop-2-enamide]	121.319
C=CC(=O)N1CCC(C(=O)N2CCC(CC(=O)N(C)C)CC2)CC1 [2-H09, N,N-dimethyl-2-{1-[1-(prop-2-enoyl)piperidine-4-carbonyl]piperidin-4-yl}acetamide]	95.7354
O=C(CCl)c1c[nH]c2ccc(F)cc12 [10-O11, 2-chloro-1-(5-fluoro-1H-indol-3-yl)ethan-1-one]	120.625
C=CC(=O)NCc1ccc(C(=O)N2CCN(C(C)=O)CC2)cc1 [3-G17, N-{[4-(4-acetylpiperazine-1-carbonyl)phenyl]methyl}prop-2-enamide]	113.888
CC(C1CC1)N(Cc1ccccc1)C(=O)CCl (stereo not shown) [5-F09, N-benzyl-2-chloro-N-(1-cyclopropylethyl)acetamide]	110.383
O=C(CCl)C1CC1(Cl)Cl (stereo not shown) [10-K09, 2-chloro-1-(2,2-dichlorocyclopropyl)ethan-1-one]	114.687
C=CC(=O)NC1CCc2ccccc21 (stereo not shown) [1-A14, N-(2,3-dihydro-1H-inden-1-yl)prop-2-enamide]	127.297
Cc1nn(CCC(=O)N2CCSSCC2)c(C)c1[N+](=O)[O-] [10-J05, 3-(3,5-dimethyl-4-nitro-1H-pyrazol-1-yl)-1-(1,2,5-dithiazepan-5-yl)propan-1-one]	96.5625
CC(Cl)C(=O)NCC1CN(c2nncs2)CCO1 (stereo not shown) [7-O03, 2-chloro-N-{[4-(1,3,4-thiadiazol-2-yl)morpholin-2-yl]methyl}propanamide]	123.391
CC(C)C(NC(=O)CCl)c1ccc(F)c(C#N)c1 (stereo not shown) [6-I19, 2-chloro-N-[1-(3-cyano-4-fluorophenyl)-2-methylpropyl]acetamide]	108.927
CCOc1ccc(NC(=O)C(C#N)=Cc2ccc(F)cc2)cc1 [8-N07, 2-cyano-N-(4-ethoxyphenyl)-3-(4-fluorophenyl)prop-2-enamide]	113.527
Cc1nc(C(NC(=O)CCl)c2ccccc2)no1 (stereo not shown) [7-F08, 2-chloro-N-[(5-methyl-1,2,4-oxadiazol-3-yl)(phenyl)methyl]acetamide]	108.32
